# Source: PubChem BioAssay AID485344 (National Center for Advancing Translational Sciences (NCATS), 2010)
# Among all 340,000 compounds or so, about 6,900 (2%) were called active. Rule as the data show it: active = inhibition above about 30%; inactive = below that, where a call was filed. Only a part is listed here, and it is no random draw. Where no call is shown, the source filed none.
# Molecular target: D(2) dopamine receptor (Homo sapiens) (UniProt P14416)
# Assay: HTS Assay for Allosteric Antagonists of the Human D2 Dopamine Receptor: Primary Screen for Antagonists; also: 0% is about no effect
# Settings: HEK293 TREx D2 cells, calcium flux, dopamine EC80; at 10 µM; stronger effect = higher value
# Summary of the method: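 Calcium flux kinetic readout in an inducible HEK293 TREx D2 line plated overnight at 30 C. After 180 s compound exposure, an EC80 dopamine challenge follows with another 180 s kinetic read to detect antagonism.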
# UniProt P14416, sequence (P14416 whole entry, looked up): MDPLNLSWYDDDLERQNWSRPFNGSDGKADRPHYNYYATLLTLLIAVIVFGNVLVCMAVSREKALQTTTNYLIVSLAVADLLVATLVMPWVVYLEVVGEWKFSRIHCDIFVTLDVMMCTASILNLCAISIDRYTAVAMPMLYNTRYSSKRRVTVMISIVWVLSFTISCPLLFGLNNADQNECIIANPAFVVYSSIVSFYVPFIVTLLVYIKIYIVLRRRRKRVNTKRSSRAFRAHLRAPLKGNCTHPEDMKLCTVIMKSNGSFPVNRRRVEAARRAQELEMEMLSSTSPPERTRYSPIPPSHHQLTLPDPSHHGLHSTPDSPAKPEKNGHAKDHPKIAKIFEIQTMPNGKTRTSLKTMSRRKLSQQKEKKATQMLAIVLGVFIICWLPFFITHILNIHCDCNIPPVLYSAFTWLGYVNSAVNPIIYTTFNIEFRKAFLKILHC
row,Structure (SMILES),inhibition
1,COC(=O)c1ccc(C2c3c(oc4ccccc4c3=O)C(=O)N2c2nc(C)c(C(=O)OC)s2)cc1 (stereo not given),24.4%
2,O=C(Nc1cc(Cl)cc(Cl)c1)c1ccc2c(c1)N(Cc1cccc(Cl)c1)C(=O)c1ccccc1S2=O (stereo not given),3.31%
3,Cc1nn(CC(=O)O)c(=O)c2cc3cc(F)ccc3n12,16.5%
4,COc1ccc2c(CNCc3cccs3)c(C(=O)O)n(Cc3ccc(C)cc3)c2c1,17.7%
5,Cc1ccc(C)c(N2CCN(C(=O)c3cc(C)nc4c3c(C)nn4-c3cccc(F)c3)CC2)c1,-1.25%
6,CCOc1ccc(C(=O)NCCc2sc(-c3ccc(OC)c(OC)c3)nc2C)cc1,0.706%
7,Cc1ccccc1OCC(=O)Nc1sc2c(c1C(=O)OC(C)C)CCCC2,-2.37%
8,CCn1c(C(=O)NCc2ccc(OC(C)C)cc2)cc2oc3ccccc3c21,-6.66%
9,CCOc1ccc(-n2c(SCC(=O)N3CCC(C)CC3)nc3c([nH]c4ccccc43)c2=O)cc1,-14.5%
10,Cc1cccc(CCNc2ncnc3onc(-c4ccc(Cl)cc4)c23)c1,-1.27%
11,S=C(NCCc1ccccc1)N1CCn2cccc2C1c1cccnc1 (stereo not given),active: 37.3%
12,COC(=O)c1ccc(NC(=O)CN(CCc2ccccc2)S(=O)(=O)c2ccc(OC)cc2)cc1,-2.33%
13,Cc1cccc(Cn2nc(C)n3c(cc4cc(C)ccc43)c2=O)c1,-2.21%
14,CCc1ccc2oc(C(=O)Nc3c(C)n(C)n(-c4ccccc4)c3=O)cc(=O)c2c1,-10.7%
15,N#Cc1ccc(C(=O)NCc2ccc3c(c2)CCN3C(=O)c2ccc(F)cc2)cc1,5.26%
16,CCOC(=O)c1ccc(N2C(=O)c3n[nH]c(C)c3C2c2ccccc2OC)cc1 (stereo not given),-7.47%
17,COc1cc(/C=C2\SC(=Nc3ccccc3)NC2=O)cc(Cl)c1O,active: 38.5%
18,Cc1ccc(Nc2ncc(C(=O)N3CCN(c4ccc(F)cc4)CC3)c3ccccc23)cc1Cl,-5.07%
19,CCOc1ccc(-c2nonc2NC(=O)c2oc3cc(C)c(C)cc3c2C)cc1OCC,-23.8%
20,CN(C(=O)N1CCN(c2ccccn2)CC1)c1ccccc1,active: 38.5%
21,Cc1ccc(NC(=O)C2CCCN2S(=O)(=O)c2cccc3nsnc23)c(C)c1 (stereo not given),-7.93%
22,Cc1ccc(C)c(-n2c3nc(=O)[nH]c(=O)c-3cc3c(C)nn(-c4ccccc4)c32)c1,-21.9%
23,COc1cccc(CNS(=O)(=O)c2cc3[nH]c(=O)c(=O)[nH]c3cc2C)c1,-5.55%
24,Cc1ccc(CNC(=O)CC(C)CC2=NS(=O)(=O)c3ccccc3N2)cc1 (stereo not given),26.5%

row,Structure (SMILES),inhibition
1,CCc1ccc(N2CCn3c2nc2c3c(=O)n(C/C=C/c3ccccc3)c(=O)n2C)cc1,-6.09%
2,COc1ccc(NC(=O)c2c(NCc3ccc(N(C)C)cc3)sc3c2CCC3)cc1,-13.1%
3,CCOc1ccccc1NC(=O)N(Cc1ccc(F)cc1)C1CCN(CC)CC1,2.82%
4,O=C(NCc1nc2ccccc2[nH]1)c1cccc(S(=O)(=O)N2CCOCC2)c1,active: 37.8%
5,Cc1ccsc1CN(C(=O)c1oc2ccc(F)cc2c1C)C1CCS(=O)(=O)C1 (stereo not given),-0.334%
6,O=C(COC(=O)c1cc[n+]([O-])cc1)NCCc1ccc(Cl)cc1Cl,active: 33.7%
7,CCOC(=O)c1cccc(NC(=O)c2cc3c(=O)n(C)c4ccccc4c3n2C)c1,-9.33%
8,CCc1nnc2c(Nc3cccc(F)c3)nc3ccc(C(=O)c4ccccc4)cc3n12,-5.54%
9,Cc1ccc(CNC(=O)CCN2C(=O)COc3ccc(C)cc32)cc1,-18.4%
10,Cc1cc(C)cc(NC(=O)c2ccc3c(c2)nnn3C2CCCC2)c1,-3.89%
11,Cc1ccc(NC2=C(CC(=O)O)C(c3ccc(F)cc3)N(c3ccc(C)cc3)C2=O)cc1 (stereo not given),23.9%
12,N#CC1=C(N)OC2=C(CC/C2=C\c2ccc(F)cc2)C1c1ccc(F)cc1 (stereo not given),active: 37.2%
13,Cc1ccc(N(Cc2ccccc2)C(=O)c2ccc(F)c(S(=O)(=O)N3CCOCC3)c2)cc1,active: 59%
14,CCN(CC)CCOC(=O)c1ccc(NC(=O)c2nn(C)c3c2COc2ccccc2-3)cc1,12.2%
15,CC1CCN(S(=O)(=O)c2nnc(NC(=O)c3ccc(C(C)C)cc3)s2)CC1,20%
16,O=C(CCCN1C(=O)c2cccnc2Oc2ccc(Cl)cc21)NCc1ccccc1F,6.42%
17,O=C(c1cc(-c2cccc(Cl)c2)on1)N1CCN(c2ccccc2)CC1,7.98%
18,CC(C)c1cnc2c(c1SCC(=O)Nc1ccc(OC(F)(F)F)cc1)c(=O)n(C)c(=O)n2C,11.2%
19,Cc1ccc(S(=O)(=O)C(CNC(=O)c2ccc(F)c(F)c2)c2ccco2)cc1 (stereo not given),12.2%
20,O=C(CSc1oc(-c2ccco2)nc1S(=O)(=O)c1ccc(Br)cc1)c1ccccc1,1.66%
21,CCS(=O)(=O)c1ccc(O)c(Nc2cc(C)nc(SC)n2)c1,-11.4%
22,CCCCn1c(=O)c2oc3ccccc3c2n(Cc2cccc(F)c2)c1=O,7.55%
23,Cc1ccc(COc2ccc(-c3cc(C(F)(F)F)n4nc(C)cc4n3)cc2)cc1,-14.1%
24,O=S(=O)(Nc1nc2ccccc2nc1Nc1ccccc1Br)c1ccccc1,3.31%

row,Structure (SMILES),inhibition
1,COc1ccc(CNS(=O)(=O)c2cc3c4c(c2)CCN4C(=O)CC3)cc1,-13.4%
2,O=C(CSc1nc2c([nH]c3ccccc32)c(=O)n1-c1cccc(Cl)c1)NCC1CCCO1 (stereo not given),27.3%
3,O=C(Cn1c2ncccc2c(=O)n1-c1ccccc1)NCc1ccccc1Cl,5.67%
4,CCOc1ccc(-c2cn(-c3ccc(C)cc3)c(SCC(=O)Nc3ccc(C)cc3)n2)cc1,-26.9%
5,Cc1ccc(NC(=O)Cc2coc3ccc(C(C)C)cc23)c(C)c1,-5.88%
6,CC1CCc2c(sc(NC(=O)c3cc(-c4cccc(Cl)c4)on3)c2C(N)=O)C1 (stereo not given),-10.1%
7,COc1ccc(CCNC(=O)CSc2cn(CCNC(=O)c3cccc(C(F)(F)F)c3)c3ccccc23)cc1OC,-12.9%
8,CCC1CN(C(=O)Nc2cccc3c2CCCC3)c2cc(Cl)ccc2O1 (stereo not given),0.0912%
9,O=C(Cn1ncc2ccsc2c1=O)N1CCN(c2ccc(F)cc2)CC1,4.53%
10,Cc1ccc(-n2ncc3c(N4CCC(C(N)=O)CC4)ncnc32)cc1,-2.36%
11,Cc1ccc(S(=O)(=O)N2CCc3cc(C(=O)Nc4ccc(C(F)(F)F)cc4)ccc32)cc1,-13.1%
12,Cc1oc(-c2ccccc2Cl)nc1CS(=O)CC(=O)NCc1ccc(Cl)cc1 (stereo not given),6.13%
13,Cc1cc(C(F)F)n2nc(C(=O)Nc3ccc(C(C)C)cc3)nc2n1,4.48%
14,COC(=O)c1sc2ncccc2c1-n1c(C)ccc1C,17.4%
15,COc1ccccc1CNS(=O)(=O)c1ccc2c(c1)CC(=O)N2C,-19.5%
16,CCOC(=O)N1CCN(C(=O)c2c(C)nn(-c3cccc(C)c3)c2-n2cccc2)CC1,-2.83%
17,Cc1ccc(C)c(N2CCN(C(=O)CCS(=O)(=O)c3cc4c(cc3Cl)NC(=O)CO4)CC2)c1,11%
18,c1ccc2c(c1)OC(CCCN1CCCCC1)c1ccccc1S2 (stereo not given),active: 87%
19,Cc1ccc2oc3c(c(=O)c2c1)C(c1ccccc1F)N(CCCN(C)C)C3=O (stereo not given),9.55%
20,O=C(NCc1ccc2c(c1)CCN2C(=O)c1ccccc1)c1ccccc1,5.15%
21,COc1ccc(CNC(=O)C2=C(C)C(=O)OC23CCCCC3)cc1,-27%
22,COc1ccc(-n2ncc3c2ncn2nc(COc4ccc(Cl)cc4)nc32)cc1,-10.9%
23,CCCSc1nnc2c(n1)OC(c1ccc(Br)s1)Nc1ccccc1-2 (stereo not given),13.7%
24,CC(C)C(=O)N1c2nc(-c3ccco3)nn2C2(CCCCC2)[C@@H]2CCCC[C@@H]21,9.86%

row,Structure (SMILES),inhibition
1,CC(=O)Nc1ccc(S(=O)(=O)N2CCC(c3nnc(-c4ccc(C)cc4)o3)CC2)cc1,-7.94%
2,Cc1oc2c(cc(NS(=O)(=O)c3ccc(C(C)C)cc3)c3ccccc32)c1C(=O)O,2.11%
3,Cc1ccc(CCNc2ncnc3onc(-c4ccc(F)cc4)c23)cc1,2%
4,COc1cccc(CNC(=O)Cn2c(=O)n3nc(-c4cccc(F)c4)nc3c3ccccc32)c1,21.7%
5,CCN(CC)C(=O)c1sc2c(c1C)c(=O)n(-c1ccc(Cl)c(Cl)c1)c(=O)n2Cc1cc(=O)n2ccccc2n1,-4.41%
6,O=C(Cn1c(=O)n(CCCS(=O)(=O)C2CCCCC2)c(=O)c2ccccc21)Nc1ccccc1C(F)(F)F,7.33%
7,COc1ccc(NC(=O)CCn2c(=O)c3cccn3c3cccnc32)cc1Cl,-7.4%
8,Cc1ccc(S(=O)(=O)c2[nH]c(-c3ccccc3)nc2SCC(N)=O)cc1,4.12%
9,Cc1cc2c(cc1S(=O)(=O)N1CCN(c3cccc(C)c3C)CC1)OCC(=O)N2,active: 50%
10,O=C1CCCc2cc(S(=O)(=O)N3CCCC(C(=O)Nc4ccc(F)c(Cl)c4)C3)ccc2N1 (stereo not given),2.6%
11,CCOc1ccc(C(=O)Nc2nnc(S(=O)(=O)Nc3ccccc3)s2)cc1,-13%
12,CSc1cccc(Nc2cc(C(=O)NCCc3ccc(Cl)cc3)c3ccccc3n2)c1,2.1%
13,Cn1c(=O)[nH]c(=O)c2c1nc(CN1CCN(c3ccccc3F)CC1)n2CCc1ccccc1,active: 46.1%
14,CC1CN(C(=O)N2CCC(C(=O)N3CCN(c4ccccc4)CC3)CC2)c2cc(Cl)ccc2O1 (stereo not given),-4.6%
15,CCOc1ccc2nc(N3CCC(C(=O)Nc4ccccc4CC)CC3)sc2c1,-5.75%
16,COc1ccc(C2/C=C\CN(C(=O)c3ccc(C)cc3)[C@H](Cc3ccccc3)C(=O)N2Cc2ccc(F)cc2)cc1 (stereo not given in full),active: 41%
17,COC(=O)COc1ccc2oc(-c3ccc(OC)cc3)cc(=O)c2c1,-6.92%
18,COc1ccc(N2CCN(C(=O)c3cnn(-c4ccc(F)cc4)c3-n3cccc3)CC2)cc1,-1.25%
19,CCC1CCCCN1CCCNC(=O)CN1C(=O)c2cccnc2Oc2ccc(C)cc21 (stereo not given),7.71%
20,O=C(Nc1ccc(Br)cc1F)C1CCN(c2nc3ccccc3[nH]2)CC1,-9.73%
21,CCOc1ccccc1CNC(=O)c1ccc(N2Cc3ccccc3Oc3ncccc32)s1,7.21%
22,COc1ccc(CNC(=O)CCCn2nc(C)c3sc4ccccc4c3c2=O)cc1OC,7.98%
23,Cc1cccc(NC(=O)N2CCN(C(=O)c3nsc4ccccc34)CC2)c1C,16.4%
